Sequences with one replicate were seen in a single cluster, so their values are uncertain.
Test system: ATP
Experiment: switch fluorescence ratio, 500 uM ATP over buffer (Cy3 cluster intensity, sum of 5 cycles each) (fold (ratio)); higher = stronger signal-on switching upon ATP binding; sequences stand for … in TCGTCGGCAGCGTCAGATGTGTATAAGAGACAGTTTTTTTTTTTTTTTTTTTTTTTTT…TC
Conditions: aptamer strand: ATP DNA aptamer (quencher-CACCTGGGGGAGTATTGCGGAGGAAGG + anchor), 100 nM annealed; ATP concentration: 500 uM; one replicate
Summary of the method: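 For every switch-domain sequence, the fluorescence ratio is the mean of per-cluster values, each being summed target-cycle Cy3 intensity over summed buffer-cycle Cy3 intensity. Clusters outside 100-1000 RFU were excluded. On a modified Illumina MiSeq flow-cell, the Cy3-labelled switching-strand clusters were annealed to 100 nM quencher-labelled ATP aptamer, imaged in selection buffer and then after 15 min with 500 uM ATP at 22 °C. Five such cycles were run, with NaOH stripping and re-annealing between them.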
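Note: ATP exposure 15 min at 22 °C before imaging.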

Row | Sequence | switch fluorescence ratio
1 | CTCGATTCGA | 1.04
2 | ATAGGGGGT | 0.986
3 | ATATAGGTT | 0.978
4 | TTCGGATCGG | 0.98
5 | GTGTCCCTG | 1.03
6 | CTGTTAGCAC | 1.7
7 | GTAGTTTACT | 0.927
8 | ACGTGCCGCC | 1.06
9 | TCCCTATGT | 1.4
10 | TGTTTGTCCT | 1.01
11 | TCGATACATC | 1.06
12 | GGTTCACTAC | 1.05
13 | ATAGGCATGG | 1
14 | TGCTGCGTTG | 0.979
15 | ACGCTGGGTG | 1.16
16 | CCCAAACATC | 1.07
17 | GACCGATAGA | 1
18 | TCTCCGGGGG | 1.04
19 | ATTCATGGTA | 0.977
20 | TCTGTACG | 0.985
21 | CACCGGAGCA | 4
22 | TCGTGTTAAC | 1.02
23 | CCATCCGATA | 3.23

Row | Sequence | switch fluorescence ratio
24 | ATAGATGATG | 0.992
25 | TGCTTATCGT | 1.04
26 | CATGATAGTG | 1.03
27 | ACAGGAGACG | 1
28 | TCGATGCTGC | 1.04
29 | TGAGTATTCC | 1.05
30 | AGTTTCTGAA | 0.984
31 | ATCAATCCCC | 1.07
32 | CGTAGTCAGG | 1.1
33 | AACATATACG | 1.19
34 | ATTCCGAATC | 1.53
35 | GCCGTCCACT | 0.987
36 | CCCCTTGACT | 1
37 | GATAGCTTGG | 0.963
38 | AATGGTCTGA | 1.04
39 | TTGCGGCGGG | 0.984
40 | CTGATTACCT | 1.23
41 | GGGCGTCCGG | 0.947
42 | TACATTTC | 1.15
43 | TTCAGGTGGA | 1.02
44 | GGTCCATCAG | 1.02
45 | GCGTTACCTC | 1.03
46 | TTCACGAGAT | 1.06

Row | Sequence | switch fluorescence ratio
47 | GCAGGCCCCG | 0.998
48 | TGTGAAGGGT | 1.02
49 | TATAATGCGG | 1
50 | AATAGTGCGT | 0.984
51 | GTCCGATTTG | 0.979
52 | ACCACGAGTG | 1.02
53 | GCTCTGCACG | 1.47
54 | TATTTTTGAT | 0.963
55 | GCATGGTAGT | 1.03
56 | AACTGCGGCG | 0.992
57 | AATAGGCTAG | 1.01
58 | GCGAGAATTA | 0.98
59 | AGGTGTCTGC | 1
60 | AGCATGTTCT | 0.994
61 | AAGTAAAACC | 1.04
62 | GTTAACGCG | 1
63 | AGGTGTCAGA | 1.07
64 | GTGGCCTCCG | 1.16
65 | TTACACGGAT | 1.19
66 | GAAAACTCTG | 0.993
67 | CCCTACTATT | 1
68 | TGACTAGGGC | 1.02
69 | TCCTGGTCAG | 1.01

Row | Sequence | switch fluorescence ratio
70 | TCTGAATACG | 1.74
71 | TTTCGCGTGC | 1.11
72 | TGCGCTGCTG | 0.969
73 | TCGGTAACTC | 1.17
74 | CAGGTAGAGG | 1.04
75 | ACTTCTAGCT | 0.999
76 | GCAGCGTGTG | 1
77 | TGATGTCTTA | 0.994
78 | GGTTATGTAG | 0.986
79 | ATTTCTCGTC | 1.02
80 | CAATCTGTAG | 1.01
81 | TCATAAGATA | 1.03
82 | AATGTTTCTC | 1
83 | GCGCCTCCCA | 1.04
84 | TCTAGCAAAC | 3.4
85 | CCAGTTGCTT | 1.05
86 | GGTCTAAGAT | 0.979
87 | ATGGCGTTGT | 1.05
88 | ATGCGCTACG | 1.02
89 | GAGTAAGGTC | 0.892
90 | AGCGTGTAAG | 1
91 | CACGTGGGTT | 1.03
92 | CTAGAACATG | 0.994

Row | Sequence | switch fluorescence ratio
93 | ATTTAGTGTC | 1.06
94 | GCCTAGCAAT | 1.31
95 | AGTCGTAATT | 0.958
96 | AATAACATGT | 0.959
97 | AACGCTTCAT | 1.06
98 | GGGAATAGG | 0.986
99 | TCGTTATAGC | 1.07
100 | TTACGTGGGG | 1.03
101 | CAAACTTCGG | 0.989
102 | TCGGTTACTG | 1.07
103 | AGCACAGTGG | 0.999
104 | CTACCGTAGA | 1.06
105 | CGATTGGCGT | 1.02
106 | CCGGGTTGC | 1.52
107 | AGGTGGGTAG | 1.02
108 | GTGATATGAC | 1.05
109 | CATTCAGGCA | 0.991
110 | ACTTTTGGGC | 0.941
111 | TTGAATTTAT | 1
112 | ATCGGTGTA | 0.987
113 | CGGGAACAC | 1.15
114 | ACCGGAG | 1.11
115 | ATATTTTAGA | 1.04

Row | Sequence | switch fluorescence ratio
116 | ATGCTTGCAG | 0.998
117 | TGCTGTTCGT | 1.02
118 | TTCAAACGT | 1.04
119 | ACGACCCGAG | 1.2
120 | GTCGCCCCTG | 1.01
121 | AAACAGCTTT | 0.953
122 | CTTCATAAAC | 1.01
123 | CCCGGGCGGA | 1.02
124 | TTTGGAGCC | 1.07
125 | GGCCCCCGAC | 1.03
126 | ATTCGTTAC | 1.12
127 | CAGGATCTGA | 0.977
128 | TGATCTTCT | 0.993
129 | TATTTGTGAA | 1
130 | TTACCGGACC | 1.34
131 | AACTGTGCCT | 1.08
132 | CTCAGTCTGT | 1.05
133 | CAAGGTTTTA | 0.977
134 | GAGTTTCCC | 0.993
135 | CGCTGTCCCC | 2.34
136 | GGCTCAGTGC | 0.987
137 | TCCTCGGGGT | 1.05
138 | ATACGCCAAA | 1.13

Row | Sequence | switch fluorescence ratio
139 | TTGGCAGACT | 1
140 | TGTCGTTGT | 0.978
141 | ATTTTGGATT | 0.993
142 | GCACGTATTG | 1.1
143 | CTGATGTTAG | 1.01
144 | TCCGACCGGA | 1.25
145 | GCGCCGGGTT | 1.02
146 | CGGAGGTTGT | 1.02
147 | ATATGGTCA | 1.01
148 | AGGTCGTGTA | 0.971
149 | AGCACTACCC | 1.6
150 | GGTCATCTAT | 1.01
151 | CAAGGTCGCC | 0.977
152 | CGTGCTAGGC | 1.04
153 | CGGTAGTGGC | 0.959
154 | AAGTTTATAC | 1.04
155 | CCGTTCAGCG | 1.07
156 | TGCAGCTTTA | 1.08
157 | CTAGCGGATG | 0.974
158 | TAAGATGCG | 0.991

From the supplement of paper PMC10126150
